The campaign covered roughly 310,000 compounds. About 2,200 (0.71%) showed an effect of 50% or more. The effect is printed as a negative number. This is one part of the list.

These results are taken from paper PMC4336329 (PLoS ONE, 2015).

Chain of human ether-à-go-go-related gene (hERG) potassium channel (Q12809 whole entry, looked up): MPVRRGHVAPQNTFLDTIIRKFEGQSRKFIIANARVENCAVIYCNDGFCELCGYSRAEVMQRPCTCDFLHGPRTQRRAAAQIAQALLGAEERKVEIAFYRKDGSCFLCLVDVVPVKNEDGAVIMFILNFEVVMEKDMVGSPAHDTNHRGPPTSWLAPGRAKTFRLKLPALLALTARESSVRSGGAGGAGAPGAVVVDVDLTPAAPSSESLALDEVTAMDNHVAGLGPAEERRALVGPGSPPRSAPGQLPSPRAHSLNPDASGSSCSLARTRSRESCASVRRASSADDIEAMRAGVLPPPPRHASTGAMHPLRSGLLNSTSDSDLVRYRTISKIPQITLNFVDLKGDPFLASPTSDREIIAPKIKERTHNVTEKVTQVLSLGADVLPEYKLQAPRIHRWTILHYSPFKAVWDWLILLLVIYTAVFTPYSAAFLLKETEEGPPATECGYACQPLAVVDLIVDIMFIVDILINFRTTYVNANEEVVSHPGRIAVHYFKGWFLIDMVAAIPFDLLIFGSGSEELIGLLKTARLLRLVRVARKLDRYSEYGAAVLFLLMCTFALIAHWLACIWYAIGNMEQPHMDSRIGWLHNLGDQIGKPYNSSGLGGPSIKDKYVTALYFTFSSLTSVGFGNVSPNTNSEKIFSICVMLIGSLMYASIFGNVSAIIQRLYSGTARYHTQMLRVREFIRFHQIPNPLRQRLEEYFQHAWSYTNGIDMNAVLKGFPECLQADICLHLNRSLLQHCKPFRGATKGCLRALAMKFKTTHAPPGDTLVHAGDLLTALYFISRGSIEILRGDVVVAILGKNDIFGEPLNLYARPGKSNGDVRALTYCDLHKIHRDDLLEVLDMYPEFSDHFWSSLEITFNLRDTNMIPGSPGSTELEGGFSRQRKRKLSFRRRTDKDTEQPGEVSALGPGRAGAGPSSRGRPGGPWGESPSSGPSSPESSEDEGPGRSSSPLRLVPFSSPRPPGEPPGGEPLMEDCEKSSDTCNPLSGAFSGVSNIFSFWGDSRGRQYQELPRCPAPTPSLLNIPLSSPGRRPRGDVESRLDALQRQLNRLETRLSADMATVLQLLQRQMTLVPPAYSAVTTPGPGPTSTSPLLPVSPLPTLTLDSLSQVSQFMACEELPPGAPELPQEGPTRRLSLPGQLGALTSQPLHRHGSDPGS

This experiment concerns the target human ether-à-go-go-related gene (hERG) potassium channel (human, UniProt Q12809). Description: primary screen, population patch clamp on CHO cells stably expressing hERG.
Regarding `COc1ccc(-c2cc(-c3ccccc3)nc(-c3ccc4c(c3)NC(=O)CO4)c2)cc1`, the “hERG current change (%, negative = inhibition) at 1uM” value was 4.07%.
As for `COc1ccc(C2C3=C(CC(C)(C)CC3=O)Nc3cc4c(cc32)OCO4)cc1` (stereo not drawn), the “hERG current change (%, negative = inhibition) at 1uM” value came to 7.67%.
Regarding `COc1ccc(/C=C/CN2CCC(Oc3ccc(C(=O)N4CCCCC4)cc3)CC2)cc1`, the “hERG current change (%, negative = inhibition) at 1uM” value is -15.6%.
On to `Cc1cc(NC(=O)CSc2c[nH]c3ccccc23)no1`, for which the “hERG current change (%, negative = inhibition) at 1uM” value is recorded as -20.1%.
`CCOc1cccc2sc(NC(=O)CCS(=O)(=O)c3ccccc3)nc12`: the “hERG current change (%, negative = inhibition) at 1uM” value was 14%.
In the case of `Cc1nc2scc(C)n2c(=O)c1S(=O)(=O)N1CCN(c2ccccc2F)CC1` it was 5.13%.
In the case of `C=CCn1c(O)c(C(C)=Nc2ccc(NC(C)=O)cc2)c(=O)[nH]c1=O`, the “hERG current change (%, negative = inhibition) at 1uM” value amounted to 8.23%.
Consider `O=C(NCc1cccnc1)c1ccc(N2CCOCC2)c([N+](=O)[O-])c1`, for which the “hERG current change (%, negative = inhibition) at 1uM” value is given as 4.84%.
Regarding `CC(C)NC(=O)c1ccc2c(=O)n(Cc3ccco3)c(=S)[nH]c2c1`, the “hERG current change (%, negative = inhibition) at 1uM” value is reported as 8.77%.
In the case of `COc1ccccc1CNC(=O)C1CCN(S(=O)(=O)c2ccc3c(c2)CC(C)N3C(=O)C2CC2)CC1` (stereo not drawn), the “hERG current change (%, negative = inhibition) at 1uM” value was found to be 15.8%.
Turning to `COc1ccc(Sc2nc(-c3ccccc3)ncc2C(=O)O)cc1`, the “hERG current change (%, negative = inhibition) at 1uM” value turned out to be 13.3%.
With `O=C(Nc1ccc2nsnc2c1)N1CCCCCC1`, the “hERG current change (%, negative = inhibition) at 1uM” value was 6.75%.
In the case of `COc1cc2c(cc1OC)C1=C(C#N)CCC(=O)N1CC2`, the “hERG current change (%, negative = inhibition) at 1uM” value stood at 11.4%.
In the case of `Cc1ccc(NC(=O)CCl)c(C)c1` it was 15.7%; in that of `O=C(CSc1nnc(-c2ccccc2F)n1C1CC1)NCc1ccco1`, 2.1%; in that of `O=C(CSC(=S)N1CCCC1)c1cc(Br)cc(Br)c1O`, 13.2%.
In the case of `CC(OC(=O)CCNS(=O)(=O)c1cccs1)C(=O)Nc1ccc(S(N)(=O)=O)cc1` (stereo not drawn), the “hERG current change (%, negative = inhibition) at 1uM” value stood at 5.31%.
In the case of `CCN(CC)C(=O)c1[nH]cnc1C(=O)N[C@@H](C)c1ccccc1` it was 13.4%; in that of `CCN(CC1CCCO1)C(=O)C1CCN(C2CCN(Cc3ccccc3C)CC2)CC1` (stereo not drawn), -5.16%.
As for `O=C(Nc1ccccc1)C1CC2CCC1C2` (stereo not drawn), the “hERG current change (%, negative = inhibition) at 1uM” value was 13.4%.
As for `Cl.N=C1c2ccccc2CN1CC(=O)c1ccccc1`, the “hERG current change (%, negative = inhibition) at 1uM” value is reported as 6.38%.
On to `CS(=O)(=O)N1CCC(C(=O)NCc2ccncc2)CC1`, for which the “hERG current change (%, negative = inhibition) at 1uM” value came out at 9.36%.
For the compound `CCN1CCN(S(=O)(=O)c2c[nH]c(C(=O)OC)c2)CC1`, the “hERG current change (%, negative = inhibition) at 1uM” value was found to be 8.18%.
In the case of `Cc1sc2ncn(CC(=O)N3CCC(C(N)=O)CC3)c(=O)c2c1S(=O)(=O)N1CCOCC1`, the “hERG current change (%, negative = inhibition) at 1uM” value is reported as 10.1%.
For the compound `COc1ccc(/C=C/C(=O)OC(C)CN2CCCCC2)cc1.Cl` (stereo not drawn), the “hERG current change (%, negative = inhibition) at 1uM” value came to 4.34%.
In the case of `CC(C)C(=O)Nc1ccc(-c2ccc3nncn3n2)cc1` it was 11.6%; in that of `O=[N+]([O-])c1cccc2c3c([nH]c12)CCCC3`, 17.5%.
On to `CN(C)C(CNC(=O)CSc1nc2sc3c(c2c(=O)n1C)CCC3)c1ccccc1` (stereo not drawn), for which the “hERG current change (%, negative = inhibition) at 1uM” value was determined as 9.04%.
On to `Cc1ccc(C)c(NC(=O)CCN2CCCC(C)C2)c1` (stereo not drawn), for which the “hERG current change (%, negative = inhibition) at 1uM” value came out at 7.54%.
As to `CC12c3ccccc3C(c3ccccc31)C1C(=O)N(c3ccncc3)C(=O)C12` (stereo not drawn), the “hERG current change (%, negative = inhibition) at 1uM” value is 15%.
`CC(C)(C)CN1CCC(Oc2cccc(C(=O)NCCCOc3cccnc3)c2)CC1`: the “hERG current change (%, negative = inhibition) at 1uM” value turned out to be 5.15%.
`O=C(CN1CCCCCC1)Nc1ccc(Cl)cn1`: the “hERG current change (%, negative = inhibition) at 1uM” value is 6.51%.
For `CC(C)NC(=O)c1sc(=S)n2c1[nH]c(=O)c1ccc(C(=O)NCCc3ccc(Cl)cc3)cc12`, the “hERG current change (%, negative = inhibition) at 1uM” value stood at 3.15%.
In the case of `CCOc1cc(CNc2ccc(O)cc2)ccc1OCc1ccc(Cl)cc1Cl`, the “hERG current change (%, negative = inhibition) at 1uM” value is listed as -0.965%.
Consider `C/C=C/C(=O)N1c2ccccc2C(C)=CC1(C)C`, for which the “hERG current change (%, negative = inhibition) at 1uM” value stood at 11%.
For `COc1ccc(-c2nnc3sc(-c4ccco4)nn23)cc1OC`, the “hERG current change (%, negative = inhibition) at 1uM” value is reported as 12.9%.
In the case of `CC1CCCCC12NC(=O)N(CC(=O)OCc1cccc(F)c1)C2=O` (stereo not drawn) it was 5.95%; in that of `COc1ccc(N2C(=O)NC3CC2(C)Oc2ccccc23)cc1` (stereo not drawn), 13.6%.
Turning to `O=C(NCC1CCCO1)C1C2C=CC3(CN(Cc4cccs4)C(=O)C13)O2` (stereo not drawn), the “hERG current change (%, negative = inhibition) at 1uM” value is listed as -5.42%.
For the compound `Cc1cc(OCC(=O)Nc2ccc(CN3CCCCC3)cc2)ccc1Cl`, the “hERG current change (%, negative = inhibition) at 1uM” value is on record as -22%.
Regarding `COc1cc(C(=O)Nc2ccc(O)cc2)ccc1OC(C)=O`, the “hERG current change (%, negative = inhibition) at 1uM” value is -3.53%.
Take `CC(C)COC(=O)c1ccc2c(c1O)C(=O)c1ccccc1C2=O`: the “hERG current change (%, negative = inhibition) at 1uM” value came to 6.47%.
As for `CS(=O)(=O)Nc1ccc(C(=O)NCCSCc2ccccc2)cc1`, the “hERG current change (%, negative = inhibition) at 1uM” value is reported as -18.4%.
In the case of `CCN(CC)CCNc1ccc2nnc(CCNS(=O)(=O)c3ccc(C)cc3)n2n1` it was 13.9%; in that of `Cc1cc(NC(=O)CC2(CC(=O)O)CCCC2)n(C)n1`, 15.8%.
